Experimental data taken from PubChem BioAssay (Tox21).
The inconclusive results got no clear call from the source; some entries with a clear call stand among them for comparison. For some assays here: Potencies of inconclusive entries are left out as doubtful fits. Calls of active or inactive are those of the source. Unless noted, calls come from the whole dose curve; as a rule, active = well fitted curve in the direction sought with a large enough effect in the repeat runs; inconclusive = weak or mixed curves; inactive = no such curve, though single readings can be large; an effect the other way counts as inactive or inconclusive.

Legend:
[1] = A CellTox Green Cytotoxicity Assay to monitor cytotoxicity in HEK293 cells - 8 hour (AID 1224884); note: nearly all actives have a fitted effect of over 35% in size; note: potency is the fitted concentration of half-maximal effect; for cytotoxicity increase: % is set by controls: 0 for no effect and ±100 for the full control effect
In short: (§1)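 Real-time, in one plate: 600 HEK293 cells/well with dead-cell DNA dye, pinned compound after 5 h, 37 C incubation over 40 h; viable cells give no appreciable fluorescence.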

[2] = A CellTox Green Cytotoxicity Assay to monitor cytotoxicity in HEK293 cells - 16 hour (AID 1224888); note: potency is the fitted concentration of half-maximal effect; nearly all actives have a fitted effect of over 35% in size
In short: as §1

[3] = qHTS RealTime-Glo MT Cell Viability Assay in HEK293 cells - 8 hour (AID 1224887); note: nearly all actives have a fitted effect of over 50% in size; note: potency is the fitted concentration of half-maximal effect
In short: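 Kinetic, non-lysing viability readout. Seed HEK293 (600/well) with reagent, incubate 5 h at 37 C/5% CO2, pin 23 nL compound in DMSO, incubate at 37 C, read luminescence at 0, 8, 16, 24, 32, 40 h.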

[4] = A CellTox Green Cytotoxicity Assay to monitor cytotoxicity in HepG2 cells - 32 hour (AID 1224883); note: % is set by controls: 0 for no effect and ±100 for the full control effect; nearly all actives have a fitted effect of over 50% in size
In short: (§2)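 Cytotoxicity was tracked as dead-cell DNA fluorescence in HepG2 cells treated with test compounds at 37 C; each time-point value comes from one kinetic series spanning 0, 8, 16, 24, 32 and 40 h.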

[5] = biological target: Estrogen receptor beta (Homo sapiens) (UniProt Q92731); assay: qHTS assay to identify small molecule agonists of the estrogen receptor beta (ER-beta) signaling pathway (AID 1259377; active = well fitted activation curve with a large enough effect in the signal ratio in the repeat runs, not every such curve was filed as active; inconclusive = weak or mixed curves, or effect the other way; the % refers to the signal ratio; note: potency is the fitted concentration of half-maximal effect); conditions: ER-beta-UAS-bla HEK293T, beta-lactamase FRET ratio, 16 h; activation: at 92.4 µM (top of the series) unless noted
Chain of UniProt Q92731 (Q92731 whole entry, looked up): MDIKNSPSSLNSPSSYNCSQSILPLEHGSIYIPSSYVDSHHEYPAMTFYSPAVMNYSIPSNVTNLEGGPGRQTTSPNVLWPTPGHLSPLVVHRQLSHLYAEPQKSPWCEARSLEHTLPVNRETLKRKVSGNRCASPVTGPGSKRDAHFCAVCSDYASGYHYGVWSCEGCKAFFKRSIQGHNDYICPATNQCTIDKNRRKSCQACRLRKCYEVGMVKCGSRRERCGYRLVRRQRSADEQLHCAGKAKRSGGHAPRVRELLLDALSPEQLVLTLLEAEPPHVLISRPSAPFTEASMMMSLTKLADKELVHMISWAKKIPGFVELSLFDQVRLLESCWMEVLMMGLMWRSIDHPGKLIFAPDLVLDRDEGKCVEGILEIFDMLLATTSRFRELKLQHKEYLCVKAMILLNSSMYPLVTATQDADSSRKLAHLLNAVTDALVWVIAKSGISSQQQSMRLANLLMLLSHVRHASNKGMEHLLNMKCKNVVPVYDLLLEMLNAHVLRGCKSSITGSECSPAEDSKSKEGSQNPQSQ
In short: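 ER-beta-UAS-bla HEK293T cells in medium with 2% charcoal-stripped FBS were exposed to compounds for 16 h at 37C. Beta-lactamase reporter activity was read as fluorescence after 2 h with LiveBLAzer B/G FRET substrate at room temperature.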

[6] = qHTS RealTime-Glo MT Cell Viability Assay in HEK293 cells - 24 hour (AID 1224886); note: nearly all actives have a fitted effect of over 50% in size; note: potency is the fitted concentration of half-maximal effect
In short: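 HEK293 cells were seeded at 600 cells/well together with NanoLuc luciferase and cell-permeant prosubstrate, preincubated 5 h at 37 C/5% CO2, then given compound in DMSO by pintool. Luminescence from viable-cell prosubstrate reduction was read repeatedly over 40 h.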

[7] = qHTS assay to identify small molecule antagonists of the sonic hedgehog signaling (Shh) pathway - cell viability counter screen (AID 1259367); note: nearly all actives have a fitted effect of over 55% in size; note: potency is the fitted concentration of half-maximal effect
In short: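 Cytotoxicity was assessed in parallel with Shh reporter activity by measuring live-cell protease fluorescence (CellTiter-Fluor) in NIH/3T3 cells stably carrying Gli1-Luc, treated with compound under conditioned medium stimulation for 23 hr plus 1 hr reagent incubation.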

[8] = qHTS RealTime-Glo MT Cell Viability Assay in HepG2 cells - 16 hour (AID 1224885); note: nearly all actives have a fitted effect of over 50% in size; note: potency is the fitted concentration of half-maximal effect; for activity change, negative = cytotoxic: % is set by controls: 0 for no effect and ±100 for the full control effect
In short: (§3)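 HepG2 cells were seeded at 600 cells/well together with NanoLuc luciferase and a cell-permeant prosubstrate, preincubated 5 h at 37 C/5% CO2, then pin-dosed with compounds in DMSO. Nonlytic luminescence from viable cells was read at each time point.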

[9] = qHTS assay to identify small molecule antagonists of the estrogen receptor alpha (ER-alpha) signaling pathway using the BG1 cell line in the presence of 0.1 nM 17-beta-estradiol - cell viability counter screen (AID 1259241); note: potency is the fitted concentration of half-maximal effect; nearly all actives have a fitted effect of over 40% in size
In short: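 VM7Luc4E2 cells (endogenous full-length ER-alpha, 4xERE-luciferase), cultured 5 days in charcoal-stripped serum, exposed to compounds with 0.1 nM 17beta-estradiol (final) for 22 hr at 37C. Viability read in same wells as live-cell protease fluorescence after 30 min.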

[10] = biological target: Estrogen receptor (Homo sapiens) (UniProt P03372); assay: qHTS assay to identify small molecule antagonists of the estrogen receptor alpha (ER-alpha) signaling pathway using the BG1 cell line in the presence of 0.1 nM 17-beta-estradiol (AID 1259244)
Chain of UniProt P03372 (P03372 whole entry, looked up): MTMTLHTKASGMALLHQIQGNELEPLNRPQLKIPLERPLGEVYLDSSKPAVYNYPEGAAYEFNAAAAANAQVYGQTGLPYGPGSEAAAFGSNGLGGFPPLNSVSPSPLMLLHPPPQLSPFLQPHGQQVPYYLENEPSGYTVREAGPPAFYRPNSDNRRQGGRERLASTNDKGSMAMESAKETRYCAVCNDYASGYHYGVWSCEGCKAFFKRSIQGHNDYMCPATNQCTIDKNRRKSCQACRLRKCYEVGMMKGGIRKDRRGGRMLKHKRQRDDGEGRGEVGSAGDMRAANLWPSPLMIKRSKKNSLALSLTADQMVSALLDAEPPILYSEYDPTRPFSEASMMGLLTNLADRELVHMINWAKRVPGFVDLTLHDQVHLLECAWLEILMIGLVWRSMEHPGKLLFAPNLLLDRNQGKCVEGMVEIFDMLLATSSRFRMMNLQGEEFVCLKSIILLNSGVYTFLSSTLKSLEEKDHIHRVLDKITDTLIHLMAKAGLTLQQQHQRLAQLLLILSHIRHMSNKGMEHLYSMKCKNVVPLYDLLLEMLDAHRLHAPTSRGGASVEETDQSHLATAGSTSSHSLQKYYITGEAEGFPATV
In short: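 Luciferase signal from VM7Luc4E2 ERE-reporter cells, co-dosed with test compound and 0.1 nM final 17beta-estradiol for 22 h, read with ONE-Glo.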

[11] = qHTS assay to identify small molecule agonists of the sonic hedgehog signaling (Shh) pathway - cell viability counter screen (AID 1259366)
In short: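 NIH/3T3-derived Gli1-Luc reporter cells, 2,000 per well, received compound after 4 h and were treated about 23 h at 37C. Viability measured in the same wells by CellTiter-Fluor fluorescence after 1 h.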

[12] = qHTS assay to identify small molecule agonists of the sonic hedgehog signaling (Shh) pathway (AID 1259368; calls by dose curve;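 note: NIH/3T3-derived 3T3Gli1-Luc cells carrying a stable Gli1-driven firefly luciferase reporter; % is set by controls: 0 for no effect and ±100 for the full control effect; nearly all actives have a fitted effect of over 15% in size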)
In short: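 Following a 24 hr incubation with DMSO-dissolved compounds at 37 C, 5% CO2, Gli1-Luc NIH/3T3-derived cells received luciferase reagent for 30 min at room temperature prior to luminescence measurement.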

[13] = qHTS assay to identify small molecule HDAC inhibitors (AID 1259364);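 note: wild-type HCT-116 cells with endogenous class I/II HDAC activity; potency is the fitted concentration of half-maximal effect; nearly all actives have a fitted effect of over 45% in size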
In short: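 HCT-116 wt cells, 1,500/well, overnight attach. Compounds (DMSO) 2 h, 37 °C. HDAC-Glo I/II, 30 min RT. Luminescence.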

[14] = qHTS RealTime-Glo MT Cell Viability Assay in HepG2 cells - 0 hour (AID 1224889)
In short: as §3

[15] = qHTS assay to identify small molecule antagonists of the androgen receptor (AR) signaling pathway using the MDA cell line in the presence of 0.5 nM R1881 - cell viability counter screen (AID 1259242); note: potency is the fitted concentration of half-maximal effect; nearly all actives have a fitted effect of over 45% in size
In short: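 Cells seeded at 3,000/well and allowed 5 hr at 37C, 0% CO2 before compound transfer and R1881 (0.5 nM final) addition; 16 hr later, live-cell protease fluorescence indicated cytotoxicity.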

[16] = biological target: Androgen receptor (Homo sapiens) (UniProt P10275); assay: qHTS assay to identify small molecule antagonists of the androgen receptor (AR) signaling pathway using the MDA cell line in the presence of 0.5 nM R1881 (AID 1259243)
Chain of UniProt P10275 (P10275 whole entry, looked up): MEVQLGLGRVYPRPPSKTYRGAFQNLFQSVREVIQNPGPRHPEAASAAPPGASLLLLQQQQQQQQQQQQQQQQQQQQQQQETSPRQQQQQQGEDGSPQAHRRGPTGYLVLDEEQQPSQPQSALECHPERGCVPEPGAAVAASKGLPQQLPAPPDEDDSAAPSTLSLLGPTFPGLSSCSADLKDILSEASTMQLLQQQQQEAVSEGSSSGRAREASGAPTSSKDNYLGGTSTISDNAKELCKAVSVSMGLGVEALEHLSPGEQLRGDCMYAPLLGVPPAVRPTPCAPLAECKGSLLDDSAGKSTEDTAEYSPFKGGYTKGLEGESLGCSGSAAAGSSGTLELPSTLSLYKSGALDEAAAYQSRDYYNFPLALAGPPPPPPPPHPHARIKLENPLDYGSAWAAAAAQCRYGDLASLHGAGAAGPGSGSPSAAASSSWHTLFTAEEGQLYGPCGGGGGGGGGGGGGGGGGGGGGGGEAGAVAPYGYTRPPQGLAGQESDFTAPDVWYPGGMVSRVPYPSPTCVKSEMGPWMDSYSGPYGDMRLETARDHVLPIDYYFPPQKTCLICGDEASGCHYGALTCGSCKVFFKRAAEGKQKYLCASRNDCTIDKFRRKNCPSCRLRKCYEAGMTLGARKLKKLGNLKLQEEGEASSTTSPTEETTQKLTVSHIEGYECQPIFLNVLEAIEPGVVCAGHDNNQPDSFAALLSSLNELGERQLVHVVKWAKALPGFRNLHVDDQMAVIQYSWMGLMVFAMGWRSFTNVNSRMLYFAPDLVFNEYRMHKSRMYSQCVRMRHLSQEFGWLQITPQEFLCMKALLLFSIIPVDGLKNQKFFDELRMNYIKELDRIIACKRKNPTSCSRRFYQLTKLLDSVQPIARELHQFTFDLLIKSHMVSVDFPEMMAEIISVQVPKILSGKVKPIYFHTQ
In short: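 Luminescence from an AR/GR-responsive MMTV-luciferase construct in MDA-kb2 breast carcinoma cells, read 30 min after ONE-Glo, following 16 hr co-treatment with compounds and 0.5 nM R1881.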

[17] = A CellTox Green Cytotoxicity Assay to monitor cytotoxicity in HepG2 cells - 8 hour (AID 1224890); note: potency is the fitted concentration of half-maximal effect; nearly all actives have a fitted effect of over 45% in size
In short: as §2

[18] = qHTS assay to identify small molecule antagonists of the sonic hedgehog signaling (Shh) pathway (AID 1259369; calls by dose curve; note: potency is the fitted concentration of half-maximal effect; nearly all actives have a fitted effect of over 45% in size)
In short: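 Read-out is luminescence from a firefly luciferase gene controlled by the Gli1 response element, in 3T3Gli1-Luc cells pre-incubated 4hr then exposed to compounds and conditioned medium for 24hr.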

[19] = qHTS assay to identify small molecule phospholipidosis (PLD) inducers (AID 1259344; active = well fitted curve in the direction sought with a large enough effect; inconclusive = small, poorly fitted or top-dose-only effect, or another doubt; inactive = no such curve, though single readings can be large; an effect the other way counts as inactive or inconclusive; note: potency is the fitted concentration of half-maximal effect)
In short: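 Cells (HepG2, 900 per well) attach for 4 h, receive LipidTOX Red and compound together, incubate 24 h at 37 C, are fixed 30 min with paraformaldehyde/Hoechst, then imaged at one site per well.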
Tags give direction and shape of the fitted curve or compound fluorescence and quenching.

With Nc1cc([N+](=O)[O-])ccc1C(=O)O the Potency [1] was inconclusive [activator, single point] and inactive and the Potency [2] was inconclusive [activator, single point].

In the case of CN(C)C=O, the Potency [1] is reported as inconclusive [activator, partial curve, poor fit].

For CCCCCCC, the Potency [1] was inconclusive [activator, single point].

For CCC(C)COC(=O)CC(C)C (centres undefined), the Potency [1] was inconclusive [activator, full curve, poor fit].

In the case of O=C(/C=C/c1ccccc1)OC/C=C/c1ccccc1, the Potency [1] is reported as inconclusive [activator, partial curve] and the Potency [3] is reported as inconclusive [cytotoxic, partial curve, poor fit].

In the case of O=C(O)c1cc(-c2ccc(F)cc2F)ccc1O, the Potency [4] is reported as “inactive” and the Potency [5] is reported as inconclusive [fluorescent, partial curve].

For CCCCCCC1CCCC(=O)O1 (centres undefined), the Potency [1] was inconclusive [activator, single point], the Potency [6] was “inactive” and the Potency [3] was “inactive”. For the same compound, the Potency [7] was “inactive”.

In the case of CN1CCN(Cc2cc(-c3ccc4[nH]c(=O)oc4c3)co2)[C@@H](c2ccc(F)cc2)C1, the Potency [1] is reported as inconclusive [activator, single point], the Potency [8] is reported as inconclusive [cytotoxic, partial curve, poor fit] and the Potency [6] is reported as active: 26.5 µM. The Potency [3] was inconclusive [cytotoxic, partial curve], the Potency [9] was inconclusive [cytotoxic, partial curve] and the Potency [10] was inconclusive [inhibitor, partial curve]. For the same compound, the Potency [11] was inconclusive [cytotoxic, partial curve] and the Potency [12] was “inactive”.

In the case of CC1(C)CCC(C)(C)c2cc(NC(=O)c3ccc(C(=O)O)cc3)ccc21, the Potency [1] is reported as “inactive”, the Potency [6] is reported as inconclusive [cytotoxic, single point] and the Potency [3] is reported as inconclusive [cytotoxic, single point]. The Potency [11] was inconclusive [cytotoxic, partial curve, poor fit].

With Cc1nc2ccccc2c(=O)o1 the Potency [1] was inconclusive [activator, single point], the Potency [6] was “inactive” and the Potency [13] was inconclusive [inhibitor, partial curve, poor fit].

In the case of CC(C)(C)CC(C)(C)c1ccc(OCCO)cc1, the Potency [1] is reported as inconclusive [activator, single point], the Potency [6] is reported as active: 5.46 µM and the Potency [3] is reported as active: 7.72 µM. The Potency [2] was inconclusive [activator, single point], the Potency [14] was inconclusive [cytotoxic, partial curve, poor fit] and the Potency [15] was active: 48.3 µM. The Potency [16] was active: 6.82 µM, the Potency [10] was active: 10.8 µM and the Potency [11] was inconclusive [cytotoxic, partial curve]. The Potency [7] was inconclusive [cytotoxic, partial curve].

For O=C(O)CNCC(=O)O, the cytotoxicity increase [1] was inactive: -1.38% [at 6.97 µM] and the activity change, negative = cytotoxic [8] was inactive: -0.86% [at 6.97 µM].

In the case of CCCCCC/C=C/CCCCCCCC(=O)O, the Potency [1] is reported as “inactive”.

For N=C(N)N, the Potency [1] was inconclusive [activator, single point].

For O=[N+]([O-])C1(Br)COCOC1, the Potency [1] was inconclusive [activator, single point], the Potency [3] was active: 49 µM and the Potency [2] was inconclusive [activator, single point]. The Potency [17] was inconclusive [activator, single point], the Potency [15] was inconclusive [cytotoxic, single point] and the Potency [11] was active: 43.3 µM. For the same compound, the Potency [7] was inconclusive [cytotoxic, partial curve] and the Potency [18] was active: 43.3 µM.

For Cc1[nH]cnc1C[C@H]1CCc2c(C)c3ccccc3n2C1=O, the Potency [1] was inconclusive [activator, single point], the Potency [8] was inconclusive [cytotoxic, partial curve] and the Potency [3] was inconclusive [cytotoxic, single point]. For the same compound, the Potency [15] was inconclusive [cytotoxic, partial curve, poor fit], the Potency [19] was inconclusive [activator, partial curve, poor fit] and the Potency [11] was inconclusive [cytotoxic, partial curve, poor fit]. The Potency [7] was inconclusive [cytotoxic, partial curve, poor fit] and the Potency [18] was active: 18.9 µM.

With O=C1c2c(O)ccc(Nc3ccc(CCO)cc3)c2C(=O)c2c([N+](=O)[O-])ccc(O)c21 the Potency [16] was active: 54.5 µM.
